Source: patent US20070259903A1 (priority 2006, published 2007)
Like-named read-outs stand apart in the source and are kept apart here.

Assays:
[1] = test system: Flu A (H1N1) New Caledonia/20/99; conditions: MDCK cells, continuous exposure
[2] = test system: Flu A (H3N2) California/7/04; conditions: MDCK cells, continuous exposure

CCCCN1C(=O)CC(=O)N(CCCC)C1=S [Compound C1, 4,6(1H, 5H)-Pyrimidinedione, 1,3-dibutyldihydro-2-thioxo]
EC50 ([1]; Neutral Red): >3.2 µg/mL
EC50 ([1]; Visual): 3.2 µg/mL
EC50 ([2]; Neutral Red): 3.2 µg/mL
EC50 ([2]; Visual): 3.2 µg/mL
